# Results reported in article PMC4336329 (PLoS ONE, 2015).
# Out of some 310,000 compounds screened, about 2,200 (0.71%) showed an effect of 50% or more. The effect is printed as a negative number. The list shows a part of the results.
# Target: human ether-à-go-go-related gene (hERG) potassium channel (human, UniProt Q12809)
# Assay: primary screen, population patch clamp on CHO cells stably expressing hERG
# Sequence of human ether-à-go-go-related gene (hERG) potassium channel (Q12809 whole entry, looked up): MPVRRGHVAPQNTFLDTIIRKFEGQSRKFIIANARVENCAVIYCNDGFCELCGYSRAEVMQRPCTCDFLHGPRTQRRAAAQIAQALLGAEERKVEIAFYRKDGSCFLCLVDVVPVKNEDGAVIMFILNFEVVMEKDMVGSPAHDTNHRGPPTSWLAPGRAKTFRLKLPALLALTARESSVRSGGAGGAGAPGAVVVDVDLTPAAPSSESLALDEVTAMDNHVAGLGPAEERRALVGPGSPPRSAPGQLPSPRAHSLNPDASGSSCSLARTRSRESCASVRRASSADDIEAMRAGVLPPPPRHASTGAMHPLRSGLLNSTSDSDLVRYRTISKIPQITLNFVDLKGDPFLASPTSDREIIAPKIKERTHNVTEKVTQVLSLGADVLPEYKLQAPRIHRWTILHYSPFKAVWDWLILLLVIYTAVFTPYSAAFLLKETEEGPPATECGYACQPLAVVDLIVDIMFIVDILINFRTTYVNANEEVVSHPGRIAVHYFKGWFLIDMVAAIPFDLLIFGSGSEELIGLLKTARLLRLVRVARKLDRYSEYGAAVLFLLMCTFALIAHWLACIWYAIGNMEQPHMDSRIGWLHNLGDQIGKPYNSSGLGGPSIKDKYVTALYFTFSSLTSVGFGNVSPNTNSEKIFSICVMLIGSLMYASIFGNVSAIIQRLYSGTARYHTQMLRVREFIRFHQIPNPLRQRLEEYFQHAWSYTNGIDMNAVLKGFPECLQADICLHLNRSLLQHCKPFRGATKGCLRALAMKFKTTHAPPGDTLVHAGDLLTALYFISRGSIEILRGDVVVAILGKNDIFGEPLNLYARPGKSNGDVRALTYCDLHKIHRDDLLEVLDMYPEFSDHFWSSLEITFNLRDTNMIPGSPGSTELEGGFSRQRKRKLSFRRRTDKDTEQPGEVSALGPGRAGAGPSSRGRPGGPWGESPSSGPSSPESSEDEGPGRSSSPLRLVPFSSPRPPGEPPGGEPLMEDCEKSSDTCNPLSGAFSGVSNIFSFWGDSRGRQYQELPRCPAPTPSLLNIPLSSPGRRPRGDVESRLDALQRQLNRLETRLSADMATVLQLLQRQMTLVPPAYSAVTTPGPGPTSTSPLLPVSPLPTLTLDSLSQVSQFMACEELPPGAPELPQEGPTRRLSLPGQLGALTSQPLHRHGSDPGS
row,SMILES,"hERG current change (%, negative = inhibition) at 1uM"
1,COc1ccc(CCN2C(=O)N(c3ccc(OC)cc3)C(=O)C2CC(=O)Nc2ccc(OC)cc2)cc1 (stereo not drawn),9.38%
2,CC(C)C(NC(=O)c1ccccc1)C(=O)OCn1nnc2ccccc2c1=O (stereo not drawn),8.75%
3,Cc1cc(NC(=O)CSc2ncn[nH]2)no1,-0.461%
4,CCn1c(=O)cc(SCC(=O)NCc2ccc(C)cc2)c2ccccc21,7.4%
5,COc1cccc(C2c3c(-c4ccccc4)n[nH]c3C(=O)N2c2ccc(C(=O)O)cc2)c1 (stereo not drawn),5.23%
6,CC(C(=O)N1CCCc2ccccc21)N1CCN(c2ccccn2)CC1 (stereo not drawn),14.3%
7,COCCNC(=O)c1c(N)n(CCC2=CCCCC2)c2nc3ccccc3nc12,8.78%
8,O=C1c2cccc3c2N(CCC3)C(=O)C1(F)c1ccccc1 (stereo not drawn),10.7%
9,CC(=O)Nc1ccc(/C=C/c2noc(-c3ccccc3O)n2)cc1,21.1%
10,O=C(Nc1ccccc1N1CCCC1)c1ccc2c(c1)OCO2,6.41%
11,COc1ccc(S(=O)(=O)N2c3ccccc3OCC2c2ccccc2)cc1 (stereo not drawn),13.3%
12,O=C(CSc1ccc(Cl)cc1)N1CCN(c2ncc(C(F)(F)F)cc2Cl)CC1,1.46%
13,CC(C)[C@H]1C(=O)Nc2ccccc2N1C(=O)N[C@@H](Cc1ccccc1)C(=O)N[C@@H](C(=O)O)c1ccccc1,3.63%
14,COc1cc(OC)cc(C(=O)NCCOc2ccccc2)c1,-6.82%
15,O=C(O)c1ccc2cccc(Cl)c2c1O,13.2%
16,C[C@@H]1C=C(C(=O)NCc2nc3ccccc3[nH]2)O[C@H](OCCCCO)C1,6.25%
17,CC(C)(C)n1cnnc1Sc1ncccc1[N+](=O)[O-],12.3%
18,O=C(COc1ccc(Cl)cc1)NNC(=O)c1cccnc1,8.29%
19,COc1cc(O)c(C(CC(=O)N2CCCC2)c2cc(OC)c(OC)c(OC)c2)c(OC)c1 (stereo not drawn),16.4%

row,SMILES,"hERG current change (%, negative = inhibition) at 1uM"
1,CC(C)CCNC(=O)C1CCC(CNS(=O)(=O)c2cccc3nsnc23)CC1 (stereo not drawn),10.4%
2,CC(=O)Nc1ccc(S(=O)(=O)Nc2ccccc2N2CCOCC2)cc1,6.27%
3,CC1(C(=O)NCc2ccc(Cl)c(Cl)c2)Oc2cccnc2NC1=O (stereo not drawn),0.52%
4,Cc1nc2nc(-c3ccco3)nn2c(C)c1Cl,12.5%
5,COc1ccc(NC(=O)CN2CC=C(c3ccccc3)CC2)cc1S(=O)(=O)N1CCOCC1,11.2%
6,Cc1csc(NC(=O)c2cc3ccccc3o2)n1,6.86%
7,O=C(CCC(=O)N1CCOc2ccccc21)NCCCN1CCCCC1,13%
8,O=C(CCNS(=O)(=O)c1ccccc1C(F)(F)F)N1CCCCCCC1,2.12%
9,CSc1ccccc1OCc1cc(C(=O)N2CCCC(C)C2)no1 (stereo not drawn),16.1%
10,COc1cccc(C(=O)N(c2ccc(C)cc2)C2C=CS(=O)(=O)C2)c1 (stereo not drawn),-4.12%
11,O=c1ncn(-c2cccc(Cl)c2)c2ccccc12,2.16%
12,Cc1cc(NO)nc(-c2ccc(Br)cc2)n1,8.03%
13,COC(=O)c1sccc1-n1cccc1C(=O)C(=O)Nc1ccc(F)cc1,-11.6%
14,COc1ccc(N(C)C(=O)c2cn(CC(C)C)c(=O)c3cc(OC)c(OC)cc23)cc1,9.76%
15,CCOC(=O)COc1ccc(C(=O)c2ccccc2)c(O)c1,8.13%
16,C/C(=N\Nc1nncc2ccccc12)c1ccc(O)cc1,13.1%
17,COC(=O)c1cc(NC(=O)c2ccc(C)cc2)c(=O)oc1C,19.3%
18,CCn1nc(NC(=O)c2ccco2)c2cc3cc(C)ccc3nc21,13.8%
19,COCCCNC(=O)c1cc2c(s1)CS(=O)(=O)C2,6.02%

row,SMILES,"hERG current change (%, negative = inhibition) at 1uM"
1,O=S(=O)(Cc1ccc(Cl)cc1)N1CCN(Cc2ccc3c(c2)OCO3)CC1,11.5%
2,Cc1cc(C)cc(N2CC(C(=O)O)CC2=O)c1 (stereo not drawn),14.2%
3,COc1ccccc1NC(=O)C1=C(C)Nc2nc(CCCO)nn2C1c1ccc2c(c1)OCO2 (stereo not drawn),6.53%
4,Cc1ccc(CNC(=O)Cn2ccc(NC(=O)OCc3ccccc3)nc2=O)o1,6.84%
5,O=C(NCc1ccccn1)c1ccc(Cn2c(=S)[nH]c3ccccc3c2=O)cc1,-5.05%
6,O=C(Cc1ccccc1)Nc1ccc2c(c1)C(=O)N(CC1CCCO1)C2=O (stereo not drawn),8.23%
7,COc1ccccc1N1CCN(C(=O)c2cc3c(=O)n4ccccc4nc3s2)CC1.Cl,10.6%
8,Cc1ccc2cc(C)c(NCCO)nc2c1,9.76%
9,CC(=O)Nc1sc(C)c(C)c1C(=O)OCC(=O)N(C)c1c(N)n(Cc2ccccc2)c(=O)[nH]c1=O,13.4%
10,CCOc1ccc(C(C)=O)cc1CN1C(=O)NC2(CCCCCCC2)C1=O,-51.8%
11,CC1=C(C(=O)OC(C)C)C(c2ccc(Br)s2)NC(=O)N1 (stereo not drawn),-9.32%
12,O=S(=O)(c1ccccc1)c1cnn2c(C(F)(F)F)cc(-c3ccccc3)nc12,-12.6%
13,CSc1nc2[nH]c3c(c2c2ncnn12)CCCC3,2.58%
14,Cc1cccc(CC(C)NC(=O)CCc2nnc(-c3ccccc3)o2)n1 (stereo not drawn),4.96%
15,COc1ccc(OC)c(NC(=O)CSc2nnc(C3CCCCC3)o2)c1,-2.71%
16,O=C(Nc1ccc(Cl)cc1Cl)c1ccc(-c2ccccc2)cc1,11%
17,CCOC(=O)N1CCN(C(=O)c2ccc(CS(=O)(=O)c3ccc(OC)cc3)o2)CC1,-1.14%
18,COC(=O)c1ccc(NC(=O)CN2C(=O)CSC2=O)cc1,3.75%
19,Cc1noc(C)c1COC(=O)[C@@H](NC(=O)c1ccccc1)C(C)C,6.45%
